Data from PubChem BioAssay (Tox21).
Values joined by “and” are separate entries in the source; they are usually repeats but may differ in a detail not shown here. Equal values may be shown once. This list was built around the results that the source calls inconclusive (neither active nor inactive); the mix of calls is not that of the screen. For part of these data: A potency beside an inconclusive call is a rough fit, not a confirmed value. Active and inactive are the calls of the source. Unless noted, calls come from the whole dose curve; as a rule, active = well fitted cell-killing curve with a large enough effect in the repeat runs; inconclusive = weak or mixed curves, or effect the other way; inactive = no such curve, though single readings can be large or run the other way.

Biological target: Peroxisome proliferator-activated receptor gamma (Homo sapiens) (UniProt P37231)
Chain of UniProt P37231 (P37231 whole entry, looked up): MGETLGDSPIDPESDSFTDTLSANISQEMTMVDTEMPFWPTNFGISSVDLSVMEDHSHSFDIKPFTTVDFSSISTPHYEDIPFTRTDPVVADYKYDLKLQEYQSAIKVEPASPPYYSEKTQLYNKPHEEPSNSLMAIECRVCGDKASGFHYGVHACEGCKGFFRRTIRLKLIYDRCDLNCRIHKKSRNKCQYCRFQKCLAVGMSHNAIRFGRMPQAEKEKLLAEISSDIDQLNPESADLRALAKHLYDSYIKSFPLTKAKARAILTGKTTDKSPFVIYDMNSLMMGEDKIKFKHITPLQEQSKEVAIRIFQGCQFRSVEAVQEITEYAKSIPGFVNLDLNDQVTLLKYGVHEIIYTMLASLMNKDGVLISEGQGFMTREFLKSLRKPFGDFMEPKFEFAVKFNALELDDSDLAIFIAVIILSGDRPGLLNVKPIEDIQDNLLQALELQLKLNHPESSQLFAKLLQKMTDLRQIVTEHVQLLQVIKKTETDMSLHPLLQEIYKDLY
Test: qHTS assay to identify small molecule antagonists of the peroxisome proliferator-activated receptor gamma (PPARg) signaling pathway (AID 743191; calls by dose curve; note: nearly all actives have a fitted effect of over 30% in size)
Conditions: HEK293H PPARg-UAS-bla, beta-lactamase ratio, antagonist, 17 h; ratio activity, negative = inhibition: at 62.6 µM (top of the series) unless noted
In short: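 GeneBLAzer PPARg UAS-bla HEK293H cells, 5 h post-plating, exposed to compounds 17 h at 37C. LiveBLAzer B/G FRET substrate added for 1 h at room temperature; beta-lactamase reporter read by fluorescence intensity.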
% is set by controls: 0 for no effect and ±100 for the full control effect; tags give direction and shape of the fitted curve.

| SMILES | ratio activity, negative = inhibition | Potency |
| --- | --- | --- |
| O=C(CCCl)NCCc1ccccc1 | inconclusive: 17.7% |  |
| CCNC(=O)NCCCOc1cccc(CN2CCCCC2)c1 | inconclusive: -14.4% |  |
| CCO[Si](CCC#N)(OCC)OCC | inconclusive: 7.73% [at 81.1 µM] |  |
| C=CCCCCCCCC |  | inactive |
| FC(F)(Cl)C(F)(Cl)Cl |  | inactive |
| N=c1nc(N2CCCCC2)cc(N)n1O |  | inactive |
| CC(=O)N(CC(O)CN(C(C)=O)c1c(I)c(C(=O)NCC(O)CO)c(I)c(C(=O)NCC(O)CO)c1I)c1c(I)c(C(=O)NCC(O)CO)c(I)c(C(=O)NCC(O)CO)c1I (stereo not given) |  | inactive |
| COC(=O)c1ccc(I)cc1S(=O)(=O)NC(=O)Nc1nc(C)nc(OC)n1 | inconclusive: 11.6% |  |
| O=C1OCCO1 |  | inactive |
| O=C(O)c1ccco1 | inconclusive: -6.25% |  |
| CC(=O)OC/C=C(\C)CCC=C(C)C |  | inactive |
| CC(C)(O)c1ccc(C(C)(C)O)cc1 |  | inactive |
| COc1cc2nc(N3CCN(C(=O)C4CCCO4)CC3)nc(N)c2cc1OC (stereo not given) |  | inactive |

Test system: not listed separately
Test: qHTS assay to identify small molecule antagonists of the peroxisome proliferator-activated receptor gamma (PPARg) signaling pathway - cell viability counter screen (AID 743194); note: nearly all actives have a fitted effect of over 55% in size; note: potency is the fitted concentration of half-maximal effect
Conditions: PPARg-bla HEK293H viability, CellTiter-Glo luminescence, 17 h, co-treated with 50 nM rosiglitazone; activity change, negative = cytotoxicity: at 62.6 µM (top of the series) unless noted
In short: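 Cytotoxicity counter screen in PPARg-bla HEK293H cells, same wells as reporter assay. Compounds plus 50 nM rosiglitazone (final) for 17 h at 37 C, then viability read by CellTiter-Glo luminescence.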

| SMILES | activity change, negative = cytotoxicity | Potency |
| --- | --- | --- |
| CCCCCCOCCO | inconclusive: 35.2% |  |
| COC(=O)/C=C\C(=O)OC |  | inconclusive: 1.74 µM [cytotoxic, full curve, poor fit] |
| CCNc1cccc(C)c1 |  | inconclusive: 236 nM [rising, full curve, poor fit] and inconclusive: 3.47 µM [rising, full curve, poor fit] |
| C=C(C)C(=O)OCC(C)C |  | inconclusive: 24.5 µM [cytotoxic, single point] |
| C=C(C)C(=O)OCCOCCOCCOC(=O)C(=C)C |  | inconclusive: 21.9 µM [rising, single point] |
| Cn1cnc2c(F)c(Nc3ccc(Br)cc3Cl)c(C(=O)NOCCO)cc21 |  | inactive |
| Cc1c(F)cc2c(=O)c(C(=O)O)cn3c2c1CCC3C (stereo not given) |  | inconclusive: 16.8 µM [rising, full curve, poor fit] |
| CCCCCCCCCCCCc1ccccc1 |  | inconclusive: 27.6 µM [cytotoxic, single point] |
| CCN(Cc1ccccc1)c1ccccc1 |  | inactive |
| O=C1c2ccccc2C(=O)C1c1ccccc1 |  | inconclusive: 1.68 µM [rising, full curve, poor fit] |
| CSc1cnccn1 |  | inactive |
| COc1ccc2cc(C=O)ccc2c1 |  | inactive |
| CCCCNc1cc(C(=O)O)cc(S(N)(=O)=O)c1Oc1ccccc1 |  | inactive |
| COc1cc2c(cc1N)oc1ccccc12 |  | inconclusive: 0.397 µM [cytotoxic, full curve, poor fit] |
| CC(C)=CC=O | inconclusive: 12.5% [at 81.1 µM] |  |
| CCCCC(CC)CCC(CC(C)C)OS(=O)(=O)O (stereo not given) |  | inactive |

| SMILES | activity change, negative = cytotoxicity | Potency |
| --- | --- | --- |
| CCCCCC/C(C=O)=C\c1ccccc1 |  | inconclusive: 0.0078 µM [rising, full curve, poor fit] |
| O=C(c1ccccc1)C(O)c1ccccc1 (stereo not given) |  | inconclusive: 15 µM [rising, partial curve, poor fit] |
| COC(=O)Cc1cccc2ccccc12 |  | inconclusive: 12.3 µM [cytotoxic, full curve, poor fit] |
| CC(C)(C)C(=O)OCOP(=O)(COCCn1cnc2c(N)ncnc21)OCOC(=O)C(C)(C)C | inconclusive: -30.7% [cytotoxic] |  |
| CCCCCCCC/C=C\CCCCCCCC(=O)OCCCC |  | inactive |
| C#CC(C)N(C)C(=O)Nc1ccc(Cl)cc1 (stereo not given) |  | inconclusive: 61.6 µM [cytotoxic, single point] |
| C/C=C/C(=O)CC |  | inconclusive: 0.943 µM [cytotoxic, full curve, poor fit] |
| CC/C=C/CCCCCCCCCCOC(C)=O |  | inconclusive: 43.6 µM [rising, single point] |
| O=C(CCCl)NCCc1ccccc1 |  | inactive |
| CCNC(=O)NCCCOc1cccc(CN2CCCCC2)c1 | inconclusive: -8.7% [cytotoxic] |  |
| CCO[Si](CCC#N)(OCC)OCC |  | inconclusive: 1.25 µM [rising, full curve, poor fit] |
| C=CCCCCCCCC |  | inactive |
| FC(F)(Cl)C(F)(Cl)Cl |  | inconclusive: 0.122 µM [rising, full curve] |
| N=c1nc(N2CCCCC2)cc(N)n1O |  | inactive |
| COc1cc(N)ccc1C |  | inconclusive: 0.108 µM [cytotoxic, full curve, poor fit] |
| CC(=O)N(CC(O)CN(C(C)=O)c1c(I)c(C(=O)NCC(O)CO)c(I)c(C(=O)NCC(O)CO)c1I)c1c(I)c(C(=O)NCC(O)CO)c(I)c(C(=O)NCC(O)CO)c1I (stereo not given) | inconclusive: -11.8% [cytotoxic] |  |
